The list shows a part of the results.

This assay addresses T1, OsWOX13 (Oryza sativa, UniProt Q5QMM3 1-267).
T1 sequence: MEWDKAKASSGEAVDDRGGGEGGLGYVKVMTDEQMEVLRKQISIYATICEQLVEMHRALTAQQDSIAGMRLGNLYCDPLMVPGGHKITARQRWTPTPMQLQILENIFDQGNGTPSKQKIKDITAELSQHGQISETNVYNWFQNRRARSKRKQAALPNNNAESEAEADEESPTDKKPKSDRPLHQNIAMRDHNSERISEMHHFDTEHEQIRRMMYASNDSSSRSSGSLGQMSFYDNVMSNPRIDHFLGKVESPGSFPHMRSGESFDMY
The assay can be described thus: protein-binding microarray (RPBM); PBS, 2% BSA, 51.3 ng/ul salmon testes DNA, 50 uM zinc acetate, 200 nM TF, 25 C, 1 h; high values mean tight binding. To be noted: protein: recombinant; tags: N-terminal polyhistidine and DsRed monomer fusion (pET32a); label: CyDye5-dUTP incorporated in the synthesized complementary strand; 3' TTTTT single-stranded linker to array surface; dsDNA, one strand shown. Put shortly: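 Transcription factors were made in E. coli BL21-CodonPlus as N-terminal fusions to a polyhistidine tag and DsRed, then purified on Ni–NTA. After primer extension with Cy5-dUTP and blocking with 2% BSA, a custom Agilent array was exposed for 1 h at 25 °C to 200 nM protein in PBS, 2% BSA, salmon testes DNA and 50 µM zinc acetate. Washed arrays were scanned on an Axon 4000B, and the binding signal is per-feature fluorescence intensity in arbitrary units.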
On to “ACCTAATTATGCTAACTAGCGCATGTGCATGAGGAATCTACGGAGTCACCTAGTGCAG”, for which the binding signal is 14400 fluorescence intensity (a.u.). As for “TTAAATAAATTACTTTTAAATTAATAAAATGTTTGAATATCGGAGTCACCTAGTGCAG”, the figure is 5500 fluorescence intensity (a.u.). As for “CATCAACAGTGGAATTAATTGGATTCGGCTACACACAGAACGGAGTCACCTAGTGCAG”, the binding signal is 6830 fluorescence intensity (a.u.). As for “TCCCGATCGCTTCAATCATTGATCACCAAAGACACGCTAGCGGAGTCACCTAGTGCAG”, the binding signal is 15800 fluorescence intensity (a.u.).

For “CTAAGATTGTGGCCTGATTAACTCATACTATTATTCATTCCGGAGTCACCTAGTGCAG”, the binding signal is 15500 fluorescence intensity (a.u.). On to “ATTTAGACACTAATTTAGAGTATTAAATATAGACTACTTACGGAGTCACCTAGTGCAG”, for which the binding signal was 8070 fluorescence intensity (a.u.). Under “TAAGTAATTAATGGAAATTAATTAACAGTAGTAGTATCCACGGAGTCACCTAGTGCAG” stands 41300 fluorescence intensity (a.u.); under “GTGACAGACTAATTAACATGCATGCATGGGGCCTGGCCTCCGGAGTCACCTAGTGCAG”, 24100 fluorescence intensity (a.u.); under “ACTTAACTGATCAGTAGCTACAAATGCTGACACAGCTAGGCGGAGTCACCTAGTGCAG”, 25800 fluorescence intensity (a.u.). Consider “ATGACTTTATTAACAGCAGTAAAATGTTACAGTGAAATTGCGGAGTCACCTAGTGCAG”, for which the binding signal was 5710 fluorescence intensity (a.u.). For “CGAGGAATTGATGGGCGAGATCACACCAAACAGAGCGAGCCGGAGTCACCTAGTGCAG”, the binding signal is 11000 fluorescence intensity (a.u.). Under “ATATAATGAGAACTAGATTGAGGAAATCACAAATCAGATGCGGAGTCACCTAGTGCAG” stands 22500 fluorescence intensity (a.u.); under “CACTGACGGAGAAATTTACCGGTCAATGGCCGTCGTCGGTCGGAGTCACCTAGTGCAG”, 18000 fluorescence intensity (a.u.). Consider “GGATTTTAAATATCTGATTTGACAAAATTTGATCGGATTTCGGAGTCACCTAGTGCAG”, for which the binding signal was 7790 fluorescence intensity (a.u.).

On to “AGTTAAACTTTCAATTTTGACGTGGAACTAAACACAGCCACGGAGTCACCTAGTGCAG”, for which the binding signal was 6370 fluorescence intensity (a.u.).

For the sequence “AAAACGTGTTAACGAAATTAGATAAAATCTGTACTGTCATCGGAGTCACCTAGTGCAG”, the binding signal was 4360 fluorescence intensity (a.u.). For “GAGAATTAATTTACTCGGATATAATTACTTCTAATGAGGTCGGAGTCACCTAGTGCAG”, the binding signal is 35200 fluorescence intensity (a.u.). As for “TAAATGATTTTCCACTAGACCCACATATCATATACAACGACGGAGTCACCTAGTGCAG”, the binding signal was 5260 fluorescence intensity (a.u.).

Take “GAGACCATATCATTGATAGATACATGCATGCATCCTACTACGGAGTCACCTAGTGCAG”: the binding signal is 7660 fluorescence intensity (a.u.). Consider “AAATCCCACTCCAATCACCACCACCTCTTCTCCAATTCCACGGAGTCACCTAGTGCAG”, for which the binding signal was 3840 fluorescence intensity (a.u.). Turning to “CACAAAGCCTTAGATTGATTCCGCATGTGTTGCGTGGAGGCGGAGTCACCTAGTGCAG”, the binding signal is 20700 fluorescence intensity (a.u.). As for “ATAATTAGTGTCCAAATATCCGATGTGATAGGAACTTAAACGGAGTCACCTAGTGCAG”, the binding signal was 5010 fluorescence intensity (a.u.). On to “CTTTAATTAGGATGTGCCACTTATCTAAGGAATAAATAACCGGAGTCACCTAGTGCAG”, for which the binding signal was 14300 fluorescence intensity (a.u.). For “GCTGATTAGTTTCACTGTTGAGCCATCGTGCAACATTGCACGGAGTCACCTAGTGCAG”, the binding signal is 28100 fluorescence intensity (a.u.). For “GTGATTTTCTATATCAATCTCATGTAAACTGGATTAGGACCGGAGTCACCTAGTGCAG”, the binding signal is 16400 fluorescence intensity (a.u.). Take “GTGTGTGTGTAATCAATCACAATAAATAAACATCCCCTCTCGGAGTCACCTAGTGCAG”: the binding signal was 11700 fluorescence intensity (a.u.). As for “AACTAACTAGGAGTATTAATTAATTCCTTCCACTAATTACCGGAGTCACCTAGTGCAG”, the figure is 9140 fluorescence intensity (a.u.). Regarding “GCAATGAATGAATGAATGAATAGCGGTGACTCTGGTCCTGCGGAGTCACCTAGTGCAG”, the binding signal is 3500 fluorescence intensity (a.u.). As for “TGCCAGACTGACAGTCACTTGTACACGCAGTATAATATCCCGGAGTCACCTAGTGCAG”, the binding signal was 3720 fluorescence intensity (a.u.).

“CAACAGATTAATGACATGTCAACAGCTGCATGCTCTAGCTCGGAGTCACCTAGTGCAG”: the binding signal is 14200 fluorescence intensity (a.u.). Turning to “CGAAAATTGATTTTCCCATGCGGACATCTTAAGACCACCGCGGAGTCACCTAGTGCAG”, the binding signal is 31500 fluorescence intensity (a.u.). Under “AACTACCTTCCCTTAATTATTACATGAATGGCACCTCTTGCGGAGTCACCTAGTGCAG” stands 4730 fluorescence intensity (a.u.); under “GGCGAAATTGACTGCAATTTGACAATTAGATCATGCACCACGGAGTCACCTAGTGCAG”, 46700 fluorescence intensity (a.u.).

For the sequence “AGTAAATTGCATAGTGACTGCTATCAATGTAACGAACGCCCGGAGTCACCTAGTGCAG”, the binding signal was 31500 fluorescence intensity (a.u.).

On to “GCTGACTGTTGCTGTTGTATATATGTAGTAGTAGTGTACACGGAGTCACCTAGTGCAG”, for which the binding signal is 6070 fluorescence intensity (a.u.). Regarding “TGCTTGATATTAATTAGGACACGCATATTTATATTATGTTCGGAGTCACCTAGTGCAG”, the binding signal was 13900 fluorescence intensity (a.u.). For “GATAAATTAATAAAATTATCAAAATTTTATGATTGGTTTACGGAGTCACCTAGTGCAG”, the binding signal was 54900 fluorescence intensity (a.u.). Under “TTTATATTAATGATTAATTAATAATCAAGTGTCGAACACGCGGAGTCACCTAGTGCAG” stands 41100 fluorescence intensity (a.u.). As for “AATGAGCCAATCCAAAACGTAATTTAGAATGGCCCGTAGCCGGAGTCACCTAGTGCAG”, the binding signal is 8650 fluorescence intensity (a.u.). As for “GAATGATTTGTCTTGGTAGATCTACTCTGAAGATATTATACGGAGTCACCTAGTGCAG”, the figure is 7490 fluorescence intensity (a.u.); as for “GTTAATTGAATCCATGCAACTGTAAATATGCCAATTCGGACGGAGTCACCTAGTGCAG”, 29200 fluorescence intensity (a.u.); as for “TCATTAACACATAATTAATTAAGTACTCCCTCCGTATTTTCGGAGTCACCTAGTGCAG”, 20200 fluorescence intensity (a.u.).

(Values after PMC7819943, “Rice protein-binding microarrays: a tool to detect cis-acting elements near promoter regions in rice”.)
